# Experimental data as given in the supplement of paper PMC6531468.
# The list shows a part of the results. These are enrichments in a pooled selection; single values are uncertain. Each score is taken over the longer molecules that contain the sequence shown.
# Assays:
# Test in all cases: 6-mer SELEX enrichment z-score vs GST control; IMP3 is the RNA-binding protein IGF2BP3; higher = more enriched by binding
# IMP3 KH1-4 = conditions: construct: KH1-4 (164-579); SELEX round: R4
# Method: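 SELEX-seq with GST-tagged IMP3 KH1-4 (Pro164-Lys579) and an N40 RNA pool, round 4. 6-mer z-score of sequence-tag enrichment normalised to the corresponding GST SELEX round; RNA k-mers written as DNA (T for U).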
# IMP3 RRM1-2 = conditions: construct: RRM1-2 (1-163); SELEX round: R2
# Chain of IMP3 RRM1-2 (chain, as listed by the source): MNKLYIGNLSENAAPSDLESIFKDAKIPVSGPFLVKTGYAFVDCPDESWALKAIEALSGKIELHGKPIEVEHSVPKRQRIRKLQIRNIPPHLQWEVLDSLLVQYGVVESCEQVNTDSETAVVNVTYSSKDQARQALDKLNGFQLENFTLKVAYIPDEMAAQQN
# Method: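 SELEX-seq with GST-tagged IMP3 RRM1-2 (Met1-Asn163) and an N40 RNA pool, round 2. 6-mer enrichment z-score normalised to GST SELEX. RNA written as DNA (T = U).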
# IMP3 full-length = IMP3 full-length (UniProt O00425); conditions: construct: FL IMP3 (1-579); SELEX round: R4
# Chain of UniProt O00425 (O00425 whole entry): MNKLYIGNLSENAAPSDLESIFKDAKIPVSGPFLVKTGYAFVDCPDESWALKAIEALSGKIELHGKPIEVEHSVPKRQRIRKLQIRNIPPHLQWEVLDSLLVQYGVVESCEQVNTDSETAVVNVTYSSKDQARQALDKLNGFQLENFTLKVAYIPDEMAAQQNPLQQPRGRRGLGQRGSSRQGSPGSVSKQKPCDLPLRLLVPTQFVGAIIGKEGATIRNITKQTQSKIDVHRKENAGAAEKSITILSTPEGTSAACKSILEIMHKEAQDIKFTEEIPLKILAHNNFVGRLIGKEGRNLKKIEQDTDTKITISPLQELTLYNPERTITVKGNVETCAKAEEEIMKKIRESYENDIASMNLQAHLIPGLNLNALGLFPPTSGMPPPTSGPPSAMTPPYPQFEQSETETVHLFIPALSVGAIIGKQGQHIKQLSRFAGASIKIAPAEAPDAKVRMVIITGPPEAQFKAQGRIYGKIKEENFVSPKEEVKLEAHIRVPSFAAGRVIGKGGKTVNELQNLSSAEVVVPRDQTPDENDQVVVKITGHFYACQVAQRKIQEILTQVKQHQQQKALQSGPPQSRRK
# Method: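 SELEX-seq with GST-tagged full-length IMP3 and an N40 RNA pool, round 4. Each 6-mer is scored as an enrichment z-score of sequence tags containing it, normalised to the matching GST SELEX round. RNA written as DNA (T = U).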
# IMP3 KH1-2 = conditions: construct: KH1-2 (164-376); SELEX round: R4
# Chain of IMP3 KH1-2 (chain, as listed by the source): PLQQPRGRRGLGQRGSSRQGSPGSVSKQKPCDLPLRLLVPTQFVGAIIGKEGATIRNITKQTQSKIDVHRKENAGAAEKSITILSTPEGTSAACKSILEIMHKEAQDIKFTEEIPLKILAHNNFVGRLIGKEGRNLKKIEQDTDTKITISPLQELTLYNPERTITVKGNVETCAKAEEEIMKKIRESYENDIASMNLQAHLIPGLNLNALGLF
# Method: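 SELEX-seq with GST-tagged IMP3 KH1-2 (Pro164-Phe376) and an N40 RNA pool, round 4 (stringent 300/600 mM KCl washes). 6-mer z-score of sequence-tag enrichment normalised to the corresponding GST SELEX round; RNA k-mers written as DNA (T for U).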
# IMP3 KH3-4 = conditions: construct: KH3-4 (377-579); SELEX round: R4
# Chain of IMP3 KH3-4 (chain, as listed by the source): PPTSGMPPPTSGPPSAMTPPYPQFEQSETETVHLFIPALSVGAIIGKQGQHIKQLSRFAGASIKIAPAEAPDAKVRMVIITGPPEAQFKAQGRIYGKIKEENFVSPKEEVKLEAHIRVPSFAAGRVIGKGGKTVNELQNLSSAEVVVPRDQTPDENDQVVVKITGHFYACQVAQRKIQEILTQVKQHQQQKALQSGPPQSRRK
# Method: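 SELEX-seq with GST-tagged IMP3 KH3-4 (Pro377-Lys579) and an N40 RNA pool, round 4. 6-mer z-score of sequence-tag enrichment normalised to the corresponding GST SELEX round; RNA k-mers written as DNA (T for U).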
# Chain of IMP3 KH1-4 (chain, as listed by the source): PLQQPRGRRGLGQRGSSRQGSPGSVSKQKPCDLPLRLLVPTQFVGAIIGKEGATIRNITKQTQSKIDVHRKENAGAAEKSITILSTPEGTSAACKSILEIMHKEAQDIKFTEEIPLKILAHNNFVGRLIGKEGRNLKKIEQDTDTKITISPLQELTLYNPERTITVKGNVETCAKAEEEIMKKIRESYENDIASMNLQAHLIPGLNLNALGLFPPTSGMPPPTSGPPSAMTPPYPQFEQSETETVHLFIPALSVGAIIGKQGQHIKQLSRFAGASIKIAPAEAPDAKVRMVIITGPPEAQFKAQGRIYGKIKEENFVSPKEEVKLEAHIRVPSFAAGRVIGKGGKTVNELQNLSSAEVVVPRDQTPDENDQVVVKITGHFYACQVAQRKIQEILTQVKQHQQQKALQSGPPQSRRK
Sequence,6-mer SELEX enrichment z-score (IMP3 KH1-4),6-mer SELEX enrichment z-score (IMP3 RRM1-2),6-mer SELEX enrichment z-score (IMP3 full-length),6-mer SELEX enrichment z-score (IMP3 KH1-2),6-mer SELEX enrichment z-score (IMP3 KH3-4)
AACCCG,-2.55,-1.55,-2.1,-2.4,-3.01
TCATTG,0.442,0.935,0.896,0.294,0.379
AACTTC,0.383,-0.043,-0.205,0.558,0.052
TGAAAA,-0.322,-2.23,-1.93,-0.433,0.767
GCGTTA,-1.1,0.205,-0.435,-0.95,-0.802
GAATAT,1.44,-0.622,-0.152,1.04,2.1
AGATAA,1.44,-0.972,-0.214,1.22,2.3
GACTGT,-0.117,-0.403,-0.401,-0.134,-0.13
CAACTG,-0.168,-0.244,-0.124,-0.13,-0.488
GGAAAC,-0.719,-1.2,-0.796,-0.797,-0.619
TACGCA,0.587,0.378,0.395,0.511,0.218
TCTGTT,0.511,0.334,0.305,0.507,0.429
CATCAA,1.01,2.32,2.91,0.958,0.372
GCGTTC,-0.846,0.417,0.12,-0.696,-0.602
GCGGAT,-0.251,0.027,0.109,-0.184,-0.066
CCTCGT,-0.929,0.034,-0.468,-0.801,-0.83
GGATAT,0.742,-0.01,0.117,0.605,1.05
TGATTT,1.04,0.092,0.066,0.839,1.36
AGATGA,1.13,-1.14,-0.42,0.776,1.64
AGCCCG,-1.26,-0.781,-0.492,-1.03,-1.53

Sequence,6-mer SELEX enrichment z-score (IMP3 KH1-4),6-mer SELEX enrichment z-score (IMP3 RRM1-2),6-mer SELEX enrichment z-score (IMP3 full-length),6-mer SELEX enrichment z-score (IMP3 KH1-2),6-mer SELEX enrichment z-score (IMP3 KH3-4)
TACGTT,-0.015,0.098,-0.206,-0.094,0.049
TGGTGA,0.118,0.006,-0.067,0.058,0.232
GAAGTG,0.069,-0.591,-0.388,0.005,0.21
TCCGTT,0.272,0.166,0.169,0.47,0.041
TTACCA,-0.047,-0.062,-0.433,-0.129,-0.212
TTCAGG,0.476,0.744,0.666,0.404,0.499
TCAGAA,0.188,0.349,0.474,0.11,0.263
TTTGGC,-0.035,0.386,0.031,-0.025,0.142
ATGAAG,1.14,-0.868,-0.209,0.59,1.5
CCGCAG,-0.187,0.047,0.363,-0.017,-0.505
GCATCT,0.54,0.671,1.34,0.207,0.066
AAATAG,0.767,-1.15,-0.482,0.571,1.49
AAGCAA,-0.565,0.128,-0.336,-0.543,-0.337
GTGAAT,0.505,-0.486,-0.329,0.195,0.673
CCGGAC,-0.732,-1.19,-0.506,-0.708,-1.12
CGAAAG,-1.88,-1.65,-1.68,-1.77,-1.59
ACAGCT,-0.023,0.401,0.52,0.166,-0.151
TACGGG,0.073,-0.165,0.169,0.113,0.174
TCTATG,0.125,0.223,-0.01,0.12,0.265
CCTCTT,0.11,0.281,-0.191,0.118,-0.058

Sequence,6-mer SELEX enrichment z-score (IMP3 KH1-4),6-mer SELEX enrichment z-score (IMP3 RRM1-2),6-mer SELEX enrichment z-score (IMP3 full-length),6-mer SELEX enrichment z-score (IMP3 KH1-2),6-mer SELEX enrichment z-score (IMP3 KH3-4)
CTCACT,0.301,0.884,0.287,0.305,-0.192
ACAAAA,-0.626,-0.75,-1.44,0.065,0.307
CGATGG,0.002,-0.275,0.039,0.02,0.006
GTGATG,0.662,-0.258,-0.094,0.373,0.607
TATATC,1.1,0.305,0.401,1.1,1.25
TTGATA,0.409,-0.184,-0.247,0.23,0.801
CTATGC,0.015,-0.083,-0.143,0.053,0.039
GGATGT,0.478,0.022,0.08,0.391,0.573
GCCGTT,-0.196,0.011,0.068,-0.04,-0.102
TCGGAC,-0.046,0.121,0.379,-0.265,-0.066
TCCCCT,0.097,-0.22,-0.462,0.084,-0.512
AATCAG,0.412,1.33,1.15,0.283,0.434
GGCAGC,0.792,0.599,1.86,0.68,0.408
ATCTGA,-0.196,-0.295,-0.145,-0.141,-0.233
ACCTTA,-0.516,-0.554,-0.988,-0.527,-0.615
TGCGTA,-2.38,0.035,-1.56,-2.19,-1.93
CGTGAC,-0.638,-0.556,-0.357,-0.699,-0.772
TCAGGG,0.089,0.569,0.544,0.226,0.193
AGGACG,0.234,-0.638,0.237,0.081,0.109
GTTCAG,0.137,0.426,0.494,0.166,0.226
